SMILES strings stand for the structures. Some of the results follow.

Here are results for ten molecules from the antibiotic and cytotoxicity screens of Wong et al. (2023).

Experiment [1] concerns HSkMC (human skeletal muscle cells). The experiment can be described thus: cytotoxicity call (relative viability < 0.9). The note with it: 10 µM.
Experiment [2] has as its system HepG2. The experiment can be described thus: cytotoxicity call (relative viability < 0.9). The note with it: 10 µM.
Experiment [3] concerns S. aureus RN4220. The experiment can be described thus: growth inhibition call (relative growth <= 0.2). The note with it: 50 µM.

Turning to `O=C(C[C@H]1C[C@@H]2c3cc(NS(=O)(=O)c4ccc(F)cc4)ccc3O[C@@H]2[C@H](CO)O1)NCCc1ccccc1`, the cytotoxicity call in experiment [1] and in experiment [2] was “inactive” each time. In addition, the growth inhibition call in experiment [3] is “inactive”.
Regarding `Cc1noc(C)c1S(=O)(=O)Nc1ccc2c(c1)C(=O)N([C@@H](C)CO)C[C@H](C)[C@H](CN(C)Cc1ccc(Cl)c(Cl)c1)OCCCC[C@@H](C)O2`, the cytotoxicity call in experiment [1] and in experiment [2] was “inactive” throughout. The growth inhibition call in experiment [3] was “inactive”.
Turning to `C=C(C)Cn1c(N2CCC(C(N)=O)CC2)nc2c1c(=O)n(C)c(=O)n2C`, the cytotoxicity call in experiment [1] and in experiment [2] was “inactive” throughout. Further, in experiment [3], the growth inhibition call is “inactive”.
With `O=S1(=O)CCN(CC2CCCC2)CC1`, the cytotoxicity call in experiment [1] and in experiment [2] was “inactive” throughout. Moreover, in experiment [3], the growth inhibition call is “inactive”.
For `C[C@H](CO)N1C[C@H](C)[C@H](CN(C)CC2CC2)Oc2cc(C#Cc3cccc(F)c3)ccc2S1(=O)=O`, the cytotoxicity call in experiment [1] and in experiment [2] was “inactive” each time. Also, the growth inhibition call in experiment [3] was “inactive”.
For `C[C@@H]1CN([C@@H](C)CO)C(=O)c2cc(NC(=O)CCC(F)(F)F)ccc2O[C@@H](C)CCCCO[C@@H]1CN(C)Cc1ccccc1`, the cytotoxicity call in experiment [1] and in experiment [2] was “inactive” throughout. Further, the growth inhibition call in experiment [3] is “inactive”.
In the case of `C[C@@H]1CN([C@@H](C)CO)C(=O)c2cccc(NC(=O)Nc3ccccc3)c2O[C@H]1CN(C)Cc1ccc(Cl)c(Cl)c1`, the cytotoxicity call in experiment [1] is “inactive”. Further, the cytotoxicity call in experiment [2] is “active”. For the same molecule, in experiment [3], the growth inhibition call was “inactive”.
With `Cc1ccc(S(=O)(=O)N(C)C[C@@H]2Oc3ccc(NC(=O)C4CC4)cc3CC(=O)N([C@@H](C)CO)C[C@@H]2C)cc1`, the cytotoxicity call in experiment [1] was “inactive”. For the same molecule, in experiment [2], the cytotoxicity call was “active”. For the same molecule, the growth inhibition call in experiment [3] is “inactive”.
Consider `Cc1ccc(S(=O)(=O)Nc2ccc3c(c2)C(=O)N([C@H](C)CO)C[C@@H](C)[C@H](CN(C)Cc2ccc(C(F)(F)F)cc2)O3)cc1`, for which the cytotoxicity call in experiment [1] and in experiment [2] was “active” throughout. For the same molecule, the growth inhibition call in experiment [3] is “inactive”.
On to `C[C@@H]1CN([C@H](C)CO)C(=O)c2cc(C#CCN(C)C)cnc2O[C@@H]1CN(C)Cc1cccc(C(=O)O)c1`, for which the cytotoxicity call in experiment [1] and in experiment [2] was “inactive” each time. The growth inhibition call in experiment [3] is “inactive”.
